Screen size: about 110,000 compounds; about 230 (0.21%) showed an effect of 50% or more. The list shows a part of the results.
biological target: DPAP1 (Plasmodium falciparum, UniProt Q8IIJ9); assay: primary screen, percent inhibition; read by cleavage of a fluorogenic dipeptide substrate; higher = more effect of the substance; set-up: species or system P. falciparum D10 trophozoite lysates; single well
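Also: 30 min substrate incubation versus DMSO and 10 µM JCP410 controls.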

Chain of DPAP1 (Q8IIJ9 whole entry, looked up): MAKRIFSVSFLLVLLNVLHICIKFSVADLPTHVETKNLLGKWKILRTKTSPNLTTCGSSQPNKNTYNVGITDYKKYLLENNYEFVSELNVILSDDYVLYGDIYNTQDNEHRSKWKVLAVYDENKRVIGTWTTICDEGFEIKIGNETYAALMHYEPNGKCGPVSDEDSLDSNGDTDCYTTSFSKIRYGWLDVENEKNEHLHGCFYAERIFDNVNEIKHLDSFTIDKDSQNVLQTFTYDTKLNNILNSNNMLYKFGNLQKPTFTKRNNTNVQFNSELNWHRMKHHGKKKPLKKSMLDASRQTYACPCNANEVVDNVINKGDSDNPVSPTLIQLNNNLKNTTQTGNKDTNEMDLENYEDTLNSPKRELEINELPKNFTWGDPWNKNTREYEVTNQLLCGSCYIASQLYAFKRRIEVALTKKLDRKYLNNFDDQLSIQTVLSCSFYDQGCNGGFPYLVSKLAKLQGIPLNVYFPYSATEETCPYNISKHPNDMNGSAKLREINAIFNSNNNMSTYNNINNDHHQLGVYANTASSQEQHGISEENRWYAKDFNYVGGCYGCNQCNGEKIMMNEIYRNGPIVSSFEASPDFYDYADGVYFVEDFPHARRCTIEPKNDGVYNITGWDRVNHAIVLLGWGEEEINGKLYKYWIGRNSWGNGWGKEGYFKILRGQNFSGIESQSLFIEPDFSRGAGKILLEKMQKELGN

Row | Compound | % Inhibition @ 10 uM [%]
1 | COc1ccc(/C=C2/SC(N3CCCCCC3)=NC2=O)cc1OC | 1.96
2 | O=C(NCCC1=CCCCC1)c1cncc(Br)c1 | -5.26
3 | Cc1cccc(CN2CCN(C)CC2)c1 | 1.48
4 | COc1cccc(C2NCCc3[nH]cnc32)c1 (stereo not drawn) | 6.96
5 | COC(=O)C(NC(=O)Nc1ccccc1)C(C)C (stereo not drawn) | 5.2
6 | CCOc1ccc(C2C(C#N)=C(N)Oc3[nH]nc(C(C)(C)C)c32)cc1OCC (stereo not drawn) | -4.48
7 | Oc1cc(Cc2ccccc2)cnc1CN1CCOCC1 | -3
8 | CCCCCC(C)NC(=O)c1ccc(Br)o1 (stereo not drawn) | 5.69
9 | COc1ccc(-c2c(C(C)=O)c(C)nc3sc4c(=O)n(-c5ccc(C)cc5)cnc4c23)cc1 | -10.7
10 | CC(C)c1ccc(NS(=O)(=O)c2ccc(Cl)cc2)cc1 | -0.197
11 | O=C(O)CC(NC(=O)C(c1ccccc1)c1ccccc1)c1ccc(F)cc1 (stereo not drawn) | 1.7
12 | CCOc1ccc(C(=O)Nc2ccc(CN3CCOCC3)cc2)cc1Br | 2.17
13 | Cc1cccc2c1-c1sc(C(=O)O)cc1CO2 | -0.631
14 | Cc1cccc(C)c1Nc1c(C)cc([N+](=O)[O-])cc1C | 1.13
15 | CCCn1c2ccccc2c2cnn(CC(=O)N(Cc3ccco3)CC3CCCO3)c(=O)c21 (stereo not drawn) | 5.27
16 | CC(C)CN1C(=O)c2ccccc2C(C(=O)N2CCCC2)C1c1cccs1 (stereo not drawn) | -1.11
17 | O=C(OCn1cncn1)c1ccc(Cl)cc1Cl | 1.13
18 | Cc1ccc(S(=O)(=O)n2cc(CO)c3ccccc32)cc1 | -1.22
19 | CC1=C(C(=O)Nc2ccccc2C)C(c2ccccc2)n2c(s/c(=C/c3cn(C)nc3C)c2=O)=N1 (stereo not drawn) | 0.431
20 | O=C(Cn1ncc2c(=O)oc3ccccc3c21)NCCCN1CCCC1=O | 2.39
21 | O=C1CSc2cc3c(cc2N1)OCC(=O)N3Cc1ccc(Cl)cc1 | 5.43
22 | Cc1ccc(OCC(=O)NC23CC4CC(CC(C4)C2)C3)c(Br)c1 | -1.82
23 | COc1cc(CN2CCN(C(=O)CC(C)C)CC2)cc(OC)c1 | 0.324
24 | COc1c(Cl)cc(-c2nc3cc(N)ccc3o2)cc1Cl | 13.2
25 | CC(C)C[C@H](NC(=O)c1ccc(OCc2ccccc2)cc1)C(=O)NCC#N | 17
26 | CC(NC(=O)CSc1nnc(-c2ccco2)n1-c1ccccc1)c1ccccc1 (stereo not drawn) | 1.76

Row | Compound | % Inhibition @ 10 uM [%]
27 | Cc1cc(C(F)(F)F)nn1CC(=O)Nc1sc2c(c1C#N)CCC(C(C)(C)C)C2 (stereo not drawn) | 3.64
28 | Cc1cc(C)n(CC(O)Cn2c(C)c(C)c3ccccc32)n1 (stereo not drawn) | 11.8
29 | O=C(CCc1nnc2n(CCc3ccccc3)c(=O)c3ccccc3n12)NCc1ccc2c(c1)OCO2 | -0.692
30 | O=C(NCCCN1CCOCC1)C1CCCN(S(=O)(=O)N2CCC3(CC2)OCCO3)C1 (stereo not drawn) | 0.0525
31 | c1cc2c(cc1NC1CCCCC1)OCO2 | -7.06
32 | O=C(Nc1ccc(F)c(F)c1)c1ccc(Cl)cc1 | -3.35
33 | COc1ccccc1C(=O)N/C(=C\c1cn(S(=O)(=O)N(C)C)c2ccccc12)C(=O)NCCO | 4.8
34 | CCOc1cccc2c1OC(c1cccc(Cl)c1)N1N=C(c3cccnc3)CC21 (stereo not drawn) | 3.47
35 | OC1(c2ccc(Br)cc2)CCN(CCCc2ccccc2)CC1 | -5.35
36 | Cc1ccc(-c2nn3c(C)nnc3c3ccccc23)cc1S(=O)(=O)NCc1cccnc1 | -0.222
37 | CC(C)N(Cc1ccccc1)C(=O)c1ccc([N+](=O)[O-])cc1Cl | 3.47
38 | COc1ccc(CNC(=O)Cn2ccc3cc(S(=O)(=O)N4CCCC4)ccc32)cc1 | -4.85
39 | Cc1cccc(-c2nc(CS(=O)CC(=O)NC(C)c3ccccc3)c(C)o2)c1 (stereo not drawn) | 3.99
40 | COc1ccc2nnc(-c3ccccc3)n2n1 | 1.4
41 | Cc1ccc(O)c(C(CC(=O)NCc2ccco2)c2ccccc2)c1 (stereo not drawn) | -4.69
42 | COc1cc(C)c(CNC23CC4CC(CC(C4)C2)C3)cc1C | -5.59
43 | COc1ccc(OC)c([N+]2=C3CCCCCN3C(O)(c3ccc(C)cc3)C2)c1 (stereo not drawn) | 4.46
44 | Cc1nc2cc(NC(=O)N3CCSCC3)ccc2n1C | 1.78
45 | O=C1NC(=O)N(Cc2ccco2)C(=O)/C1=C/c1c[nH]c2ccccc12 | 27.4
46 | COc1cc(-c2nc3c4ccccc4c4ccccc4c3[nH]2)ccc1O | -3.28
47 | Cc1cc(C)c2nc(N3CCC(C(=O)N4CCc5ccccc5C4)CC3)sc2c1 | -1.58
48 | Cc1cccc(CN2CCN(c3ccccn3)CC2)c1 | -5.81
49 | COc1ccc(C2=NN(c3nc(-c4cc(C)ccc4C)cs3)C(c3ccc(Cl)cc3Cl)C2)cc1F (stereo not drawn) | -2.5
50 | CCCCOC(=O)c1ccc(N2CCOCC2)cc1 | -0.828
51 | Sc1nc(-c2ccccc2)cn1-c1ccccc1 | 37.1
52 | COc1ccccc1OCC(=O)Nc1sc(C)c(C)c1C(N)=O | -3.41

Row | Compound | % Inhibition @ 10 uM [%]
53 | COc1ccc(NS(=O)(=O)c2cccc(C(=O)NCc3ccccc3)c2)cc1 | -0.0217
54 | O=C(O)C1CCCCC1C(=O)N1CCCC1 (stereo not drawn) | -2.03
55 | CCCCCOc1ccc2oc(=O)c3c(c2c1)CCCN3C(=O)CN1CCN(CC)CC1 | 10.4
56 | Cc1ccc2c(c1)NC(c1cccs1)C1=C(O)CC(C)(C)CC1=N2 (stereo not drawn) | -4.32
57 | CS(=O)(=O)N(CC(=O)N1CCCCCC1)c1cccc2ccccc12 | 2.79
58 | COc1cc(CN2CC(C)OC(C)C2)cc(OC)c1O (stereo not drawn) | -2.54
59 | COc1ccc(OC)c(C2C3=C(O)CC(C)(C)CC3=Nc3ccccc3N2C(=O)C(F)(F)F)c1 (stereo not drawn) | -1.06
60 | Cc1c2c(=O)n(-c3nc4ccccc4s3)[nH]c2cc(=O)n1Cc1ccccc1 | -1.98
61 | Cc1ccc(-n2nc(C)c3c(C(=O)NCCc4c(C)noc4C)cc(C)nc32)cc1 | 0.44
62 | CN(C)CCCN(CCCN(C)C)Cc1ccc(Cl)cc1Cl | -4.14
63 | CCCNCC1=C(C(=O)OCC)C(c2ccccc2)NC(=O)N1 (stereo not drawn) | -6.91
64 | Cn1c(=O)c2c(nc(SCC(=O)NC(C)(C)C)n2Cc2cccc(Cl)c2)n(C)c1=O | 0.674
65 | CC1CCCCC1NS(=O)(=O)c1ccc2nc(O)ccc2c1 (stereo not drawn) | -7.34
66 | Cc1ccc(Cl)c2c1C(=O)c1ccccc1C2=O | 3.06
67 | COC(=O)C1=CN(C(C)C)C=C(C(=O)OC)C1c1ccc(OC)cc1OC | 4.99
68 | CC(C)(C)C1CCc2c(sc(NC(=O)C3CCCO3)c2C#N)C1 (stereo not drawn) | 0.76
69 | CC(C)c1cc2cc3ccc(=O)oc3cc2o1 | 0.467
70 | O=C(Nc1ccc(F)cc1)c1cccc(S(=O)(=O)Nc2ccc(F)cc2)c1 | -1.02
71 | CCOC(=O)N1CCN(C(=O)CC2c3ccccc3Oc3ccccc32)CC1 | 0.343
72 | CCn1cc(/C=C(\NC(=O)c2ccco2)C(=O)NCc2ccccc2)c2ccccc21 | -0.235
73 | O=C(/C=C/c1ccccc1)Nc1ccccc1Br | 1.63
74 | Clc1ccccc1N1CCN(CC2CC=CCC2)CC1 (stereo not drawn) | -0.603
75 | OCCCCCNc1ncnc2sc3c(c12)CCCC3 | 1.57
76 | O=S(=O)(c1ccc(F)cc1)N1CCN(c2cccc(Cl)c2)CC1 | 0.135
77 | CCCN1Cc2cccc(C(=O)O)c2C1=O | -1.03
78 | Cc1cc(Br)ccc1OCC(=O)Nc1ccc(S(=O)(=O)N2CCOCC2)cc1 | -4.52

Row | Compound | % Inhibition @ 10 uM [%]
79 | CCCOc1ccc(CNC(=O)CCCn2sc3ccccc3c2=O)cc1 | 8.44
80 | Cc1ccc(S(=O)(=O)/N=C(\Nc2cc(C)on2)c2ccc(Cl)cc2)cc1 | -1.51
81 | C=CCn1c(SCC(=O)NCc2ccc3c(c2)OCO3)nnc1-c1cccnc1 | -8.98
82 | CC(=O)N1CCC(N2CCN(c3ccc(F)cc3)CC2)CC1 | -5.31
83 | CCC(C(=O)Nc1ccc(CC(=O)O)cc1)c1ccccc1 (stereo not drawn) | 2.44
84 | CC(C)CCNC(=O)c1cc2ccc3cccnc3c2[nH]1 | 4.27
85 | O=C(NCCN1CCCCCC1)c1ccc2nc(N3CCCCC3)sc2c1 | -0.637
86 | CCOc1ccc(CNc2nc3ccc(C)cc3n3cnnc23)cc1OC | -2.42
87 | CCC(C)NC(=O)Cn1cc(S(=O)(=O)N2CCCC2)c(S(=O)(=O)N2CCCC2)c1 (stereo not drawn) | 3.68
88 | CCc1ccc(NC(=O)C(CC)Oc2ccccc2)cc1 (stereo not drawn) | 1.57
89 | CCOC(=O)NS(=O)(=O)c1ccc(CCNC(=O)c2cc(C)on2)cc1 | 3.77
90 | Cc1ccc(C2=N/C(=C\c3c(C)nn(-c4ccccc4)c3Cl)C(=O)O2)cc1 | -2.86
91 | CCCCN(CC)C(=O)Cn1c(=O)sc2ccccc21 | -1.48
92 | COCCCNC(=O)c1c2c(nn1C)-c1ccccc1SC2 | -3.95
93 | CC(C)Oc1ccc(CNC(=O)C2(c3ccccc3)CCOCC2)cc1 | -3.47
94 | CCc1c(CN2CCN(Cc3ccc4c(c3)OCO4)CC2)csc1C | -2.73
95 | Fc1ccc(-c2noc3ncnc(NCc4ccccc4Cl)c23)cc1 | -7.13
96 | O=C1c2ccccc2C(=O)C1c1ccc(O)cc1 | 0.00178
97 | CCCCOc1ccc(/C=c2\sc3nc(C4COc5ccccc5O4)nn3c2=O)cc1OC (stereo not drawn) | -5.2
98 | O=C(NCc1ccco1)c1cnn2c1NC(c1ccc(Br)cc1)CC2C(F)(F)F (stereo not drawn) | 4.33
99 | Cc1nc2nc(NC(=O)Cc3ccccc3)nn2c(O)c1Cc1ccccc1 | -4.91
100 | Cc1sc(NC(=O)Cc2ccc(Cl)cc2)c(C#N)c1C | 3.05
101 | O=C(O)c1cc(C2CC2)nc2ccccc12 | 0.878
102 | Oc1nc(-c2ccccc2)nc2c1C1(CCCC1)Cc1ccccc1-2 | 1.44
